According to the supplement of paper PMC4604168 (melanoma cell lines):
The other results are listed elsewhere or left out. Most values come without repeats; read them as rough.

The compounds below were run on COLO792 (assay: cell count relative to DMSO control; melanoma cells; higher = more viable cells). Settings: library dose: low library concentration; 72 h.
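Note: cell number obtained by counting DAPI-stained nuclei in high-throughput microscope images with image analysis software, screen run in 1,536-well plates.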

SMILES | cell count
CN1CCN(c2ccc3nc(-c4c(N)c5c(F)cccc5[nH]c4=O)[nH]c3c2)CC1 [Dovitinib] + O=C(O)[C@@H]1[O][Sb](=[O])([O][Sb]2(=[O])[O][C@H]([C@H](O)CO)[C@H](O)[C@H](C(=O)O)[O]2)[O][C@H]([C@H](O)CO)[C@@H]1O [stibogluconate] (first compound 0.1 µM, partner dose 2 µM) | 107%
C=CCNC1=C2C[C@@H](C)C[C@H](OC)[C@H](O)[C@@H](C)/C=C(\C)[C@H](OC(N)=O)[C@@H](OC)/C=C\C=C(/C)C(=O)NC(=CC1=O)C2=O [Tanespimycin] + COc1ccc(Cl)c(Nc2nc3ccccc3nc2NS(=O)(=O)c2cccc(NC(=O)C(C)(C)N)c2)c1 [XL147] (first compound 0.002 µM, partner dose 0.8 µM) | 105%
CN1CCN(c2ccc3nc(-c4c(N)c5c(F)cccc5[nH]c4=O)[nH]c3c2)CC1 [Dovitinib] + Nc1ncn([C@H]2C[C@H](O)[C@@H](CO)O2)c(=O)n1 [decitabine] (first compound 0.1 µM, partner dose 0.1 µM) | 83%
C[C@@H](Oc1cc(-c2cnn(C3CCNCC3)c2)cnc1N)c1c(Cl)ccc(F)c1Cl [Crizotinib] + Cc1nc(Nc2ncc(C(=O)Nc3c(C)cccc3Cl)s2)cc(N2CCN(CCO)CC2)n1 [dasatanib] (first compound 0.2 µM, partner dose 0.004 µM) | 72.2%
CS(=O)(=O)CCNCc1ccc(-c2ccc3ncnc(Nc4ccc(OCc5cccc(F)c5)c(Cl)c4)c3c2)o1 [lapatinib] + CC(=O)c1c(C)c2cnc(Nc3ccc(N4CCNCC4)cn3)nc2n(C2CCCC2)c1=O [palbociclib] (first compound 0.8 µM, partner dose 0.04 µM) | 71.5%
CS(=O)(=O)CCNCc1ccc(-c2ccc3ncnc(Nc4ccc(OCc5cccc(F)c5)c(Cl)c4)c3c2)o1 [lapatinib] + COCC[n+]1c2c(n(Cc3cnccn3)c1C)C(=O)c1ccccc1C2=O [YM155] (first compound 0.8 µM, partner dose 0.0004 µM) | 83.7%
CN1CCN(c2ccc3nc(-c4c(N)c5c(F)cccc5[nH]c4=O)[nH]c3c2)CC1 [Dovitinib] + COCC[n+]1c2c(n(Cc3cnccn3)c1C)C(=O)c1ccccc1C2=O [YM155] (first compound 0.1 µM, partner dose 0.0004 µM) | 82.9%
C[C@@H](Oc1cc(-c2cnn(C3CCNCC3)c2)cnc1N)c1c(Cl)ccc(F)c1Cl [Crizotinib] + CCCS(=O)(=O)Nc1ccc(F)c(C(=O)c2c[nH]c3ncc(Cl)cc23)c1F [PLX4720] (first compound 0.2 µM, partner dose 0.08 µM) | 103%
C=CCNC1=C2C[C@@H](C)C[C@H](OC)[C@H](O)[C@@H](C)/C=C(\C)[C@H](OC(N)=O)[C@@H](OC)/C=C\C=C(/C)C(=O)NC(=CC1=O)C2=O [Tanespimycin] + Cc1nc(Nc2ncc(C(=O)Nc3c(C)cccc3Cl)s2)cc(N2CCN(CCO)CC2)n1 [dasatanib] (first compound 0.002 µM, partner dose 0.004 µM) | 72.2%
CS(=O)(=O)CCNCc1ccc(-c2ccc3ncnc(Nc4ccc(OCc5cccc(F)c5)c(Cl)c4)c3c2)o1 [lapatinib] + Nc1nc(F)nc2c1ncn2[C@@H]1O[C@H](CO)[C@@H](O)[C@@H]1O [fludarabine] (first compound 0.8 µM, partner dose 0.2 µM) | 88.9%
C[C@@H](Oc1cc(-c2cnn(C3CCNCC3)c2)cnc1N)c1c(Cl)ccc(F)c1Cl [Crizotinib] + Nc1cccc2c1CN(C1CCC(=O)NC1=O)C2=O [lenalidomide] (first compound 0.2 µM, partner dose 1 µM) | 92.6%
C[C@@H](Oc1cc(-c2cnn(C3CCNCC3)c2)cnc1N)c1c(Cl)ccc(F)c1Cl [Crizotinib] + COc1ccc(Cl)c(Nc2nc3ccccc3nc2NS(=O)(=O)c2cccc(NC(=O)C(C)(C)N)c2)c1 [XL147] (first compound 0.2 µM, partner dose 0.8 µM) | 92.1%
CS(=O)(=O)CCNCc1ccc(-c2ccc3ncnc(Nc4ccc(OCc5cccc(F)c5)c(Cl)c4)c3c2)o1 [lapatinib] + CCCS(=O)(=O)Nc1ccc(F)c(C(=O)c2c[nH]c3ncc(Cl)cc23)c1F [PLX4720] (first compound 0.8 µM, partner dose 0.08 µM) | 83.7%

These compounds were tested on COLO800 in the same assay as above. Settings: library dose: low library concentration; 72 h.

SMILES | cell count
C[C@@H](Oc1cc(-c2cnn(C3CCNCC3)c2)cnc1N)c1c(Cl)ccc(F)c1Cl [Crizotinib] + CO[C@H]1C[C@@H]2CC[C@@H](C)[C@@](O)(O2)C(=O)C(=O)N2CCCC[C@H]2C(=O)O[C@H]([C@H](C)C[C@@H]2CC[C@@H](OCCO)[C@H](OC)C2)CC(=O)[C@H](C)/C=C(\C)[C@@H](O)[C@@H](OC)C(=O)[C@H](C)C[C@H](C)/C=C/C=C/C=C/1C [everolimus] (first compound 0.2 µM, partner dose 0.02 µM) | 67.1%
CN1CCN(c2ccc3nc(-c4c(N)c5c(F)cccc5[nH]c4=O)[nH]c3c2)CC1 [Dovitinib] + CC(=O)c1c(C)c2cnc(Nc3ccc(N4CCNCC4)cn3)nc2n(C2CCCC2)c1=O [palbociclib] (first compound 0.1 µM, partner dose 0.04 µM) | 61.9%
CS(=O)(=O)CCNCc1ccc(-c2ccc3ncnc(Nc4ccc(OCc5cccc(F)c5)c(Cl)c4)c3c2)o1 [lapatinib] + C#Cc1cccc(Nc2ncnc3cc(OCCOC)c(OCCOC)cc23)c1 [erlotinib] (first compound 0.8 µM, partner dose 0.8 µM) | 69%
C[C@@H](Oc1cc(-c2cnn(C3CCNCC3)c2)cnc1N)c1c(Cl)ccc(F)c1Cl [Crizotinib] + CN1CCN(c2ccc3nc(-c4c(N)c5c(F)cccc5[nH]c4=O)[nH]c3c2)CC1 [Dovitinib] (first compound 0.2 µM, partner dose 0.1 µM) | 82.8%
CS(=O)(=O)CCNCc1ccc(-c2ccc3ncnc(Nc4ccc(OCc5cccc(F)c5)c(Cl)c4)c3c2)o1 [lapatinib] + OCc1c[nH]c2ccccc12 [Indole-3-carbinol] (first compound 0.8 µM, partner dose 0.8 µM) | 94%
CNC(=O)c1cc(Oc2ccc(NC(=O)Nc3ccc(Cl)c(C(F)(F)F)c3)cc2)ccn1 [sorafenib] + C#Cc1cccc(Nc2ncnc3cc(OCCOC)c(OCCOC)cc23)c1 [erlotinib] (first compound 0.4 µM, partner dose 0.8 µM) | 105%
C=CCNC1=C2C[C@@H](C)C[C@H](OC)[C@H](O)[C@@H](C)/C=C(\C)[C@H](OC(N)=O)[C@@H](OC)/C=C\C=C(/C)C(=O)NC(=CC1=O)C2=O [Tanespimycin] + Cn1c(Nc2ccc(C(F)(F)F)cc2)nc2cc(Oc3ccnc(-c4ncc(C(F)(F)F)[nH]4)c3)ccc21 [CHIR265] (first compound 0.002 µM, partner dose 0.08 µM) | 82.1%
CN1CCN(c2ccc3nc(-c4c(N)c5c(F)cccc5[nH]c4=O)[nH]c3c2)CC1 [Dovitinib] + OCc1c[nH]c2ccccc12 [Indole-3-carbinol] (first compound 0.1 µM, partner dose 0.8 µM) | 89.7%
CNC(=O)c1cc(Oc2ccc(NC(=O)Nc3ccc(Cl)c(C(F)(F)F)c3)cc2)ccn1 [sorafenib] + CS(=O)(=O)CCNCc1ccc(-c2ccc3ncnc(Nc4ccc(OCc5cccc(F)c5)c(Cl)c4)c3c2)o1 [lapatinib] (first compound 0.4 µM, partner dose 0.8 µM) | 65.6%
CN1CCN(c2ccc3nc(-c4c(N)c5c(F)cccc5[nH]c4=O)[nH]c3c2)CC1 [Dovitinib] + CS(=O)(=O)CCNCc1ccc(-c2ccc3ncnc(Nc4ccc(OCc5cccc(F)c5)c(Cl)c4)c3c2)o1 [lapatinib] (first compound 0.1 µM, partner dose 0.8 µM) | 79.5%
CNC(=O)c1cc(Oc2ccc(NC(=O)Nc3ccc(Cl)c(C(F)(F)F)c3)cc2)ccn1 [sorafenib] + Nc1nc(F)nc2c1ncn2[C@@H]1O[C@H](CO)[C@@H](O)[C@@H]1O [fludarabine] (first compound 0.4 µM, partner dose 0.2 µM) | 114%
CNC(=O)c1cc(Oc2ccc(NC(=O)Nc3ccc(Cl)c(C(F)(F)F)c3)cc2)ccn1 [sorafenib] + COc1ccc(Cl)c(Nc2nc3ccccc3nc2NS(=O)(=O)c2cccc(NC(=O)C(C)(C)N)c2)c1 [XL147] (first compound 0.4 µM, partner dose 0.8 µM) | 137%
CS(=O)(=O)CCNCc1ccc(-c2ccc3ncnc(Nc4ccc(OCc5cccc(F)c5)c(Cl)c4)c3c2)o1 [lapatinib] + C=C(c1ccc(C(=O)O)cc1)c1cc2c(cc1C)C(C)(C)CCC2(C)C [Bexarotene] (first compound 0.8 µM, partner dose 2 µM) | 82.9%
C[C@@H](Oc1cc(-c2cnn(C3CCNCC3)c2)cnc1N)c1c(Cl)ccc(F)c1Cl [Crizotinib] + C#Cc1cccc(Nc2ncnc3cc(OCCOC)c(OCCOC)cc23)c1 [erlotinib] (first compound 0.2 µM, partner dose 0.8 µM) | 70.2%
